In the supplement of paper PMC12632987:
Over roughly 4,500 sequences, “median log2 fold change of GCK-ALFA target abundance (FLAG IP / Myc IP barcode read proportion)” has its median near 0.078; the lowest 2% begin near -0.6. The list shows a part of the results.

B1: GBRAP_166_4965 (protein)
chain: MEEEIVEEFKKYLEELKEKMKEANYEEKLELLAEAAEKLREAKEAGISDEKLRELIRYLIELAREVGLSDSDVYGALSILADLDEEEIDILEEALEEVRK
B2: GBRAP_160_4284 (protein)
chain: EEEAEKLKEEVEEIFEEAKEMMKGEDQANVVTIVRVAGGEVAMALFESPIATDELVDKALEIMDELAETIAANPDLTDEEREELLEEAREKILKAIEESA
B3: GBRAP_11_2915 (protein)
chain: KKEALKEIAKLAEELVKALKELKKKGVDDKELQEKALKLAEELLKLVKETMDEESADLAKELVKALKEAKKDPKNAEQYVNEALAIAEVLLGQALLEIEE
B4: GBRAP_128_3217 (protein)
chain: STEEVVKQVEELLEKIKKADEEEAKKIAKELAELILSSSEEAAEAAAEKIEKLAPELSEEDLEILMKEFVEAAKKTDTPVSLVLLDIAVELGEEILEKEE
B5: GBRAP_83_6889 (protein)
chain: AEEITVGAAADHVAEAVAAAGDLAKEEGYDVTLDLAVTPESVPALEAGLDALAAAGVKVDLRVTVVAPTAEEAEATAARIRAHAAASGAARSLTVETEVV
B6: GBRAP_55_6429 (protein)
chain: SEDEEIEELIAETNTDILLAHADDPEALRAAAEAIAKSVEKVKLIIRREDIEDEESAERVVRAVRVMAEVAKELGKELEVTYIDLPEELVRRIEEAIAAV
B7: GBRAP_128_3308 (protein)
chain: MNEELLKKAEELLKALEKADEATAAELTREIAALLSEASPEEQEKIAELFEKALKKLSAAKLDVVADTLRALIPEADPATAEVLADLEVEALNEAEEKEE
B8: GBRAP_43_5797 (protein)
chain: MKELVEGTLDFARTALETPEISDETKAAIVEHAVEVAIDEGVLTPEQLRELLEALEASVSPETAAAALERILAIARELGAPAELVAIVEEALARARAKLA
B9: GBRAP_139_3731 (protein)
chain: NEAEEKIEKAVELAEKSMKTGGEYVKEIADLLNSMDEETAEKAAEAIAEVAKKESFDKVEKFFDELIETLLTEHKNEDLADIVEAARNRALAEVAVREEK
B10: GBRAP_52_6063 (protein)
chain: SKEKIEELAKKIYEAIKEGNLEKALELAEEAVKELSLEEIKEMLELTAKLVAKGNDEQHELFVEFLDKFEDIMIKEGISEEDALIIVGNAEATLAKEVAK
B11: GBRAP_11_2840 (protein)
chain: EKEKLKALAEAAAALAAELEALIASGAPTQEQLDALLKKAKALLAETKASGDKAAAKIAEIAVEEIEKAIADPATQQQHLQNALAAARVLEGQYLLKLEE
B12: GBRAP_39_5658 (protein)
chain: EEEEENELEFSYLVALAEKYRVDKGISDEELIEEGLKTLEKIAKENPEIKELVNELIELAKNGDLETKLAAAGIALLYKEGTPLEEIKEHIEKFINYVKS
B13: GBRAP_160_4456 (protein)
chain: SERLEKYLALIDEIREESIKLIEGETHEQRVVIIEGLFGEFLMELVEDESVSDELEDKVAEVIDELVEYLRENPDLTEEEIKELIDEAAEKIKEILKEEL
B14: GBRAP_26_5473 (protein)
chain: LEELFKKFLEKLEKALDELLDPELAAAAKAELATLVYEAEEKLEENKNDMEKQKKILEEFLKELGEELETLGVPEEKREKLLEIAKKEAEKILKELKEKQ
B15: GBRAP_137_3618 (protein)
chain: KTVTITFSEEDGVALATLEADPSVDHERLRELVERVAEETGAQVVEAYDENSDTLVLDLVGDRETIIAATRLLIRRLREELGAEVVLRSDGAEDLVEAVR
B16: GBRAP_39_5635 (protein)
chain: EEEEEIELLESLAEAELAKRLVETGLSLEELYEKLLKEALEKAKDDPELKKLIEELDKLAKEKGEEAKEKLTAILALLLSGEPLEDVKKLLKAKIEELKK
B17: GBRAP_159_3965 (protein)
chain: MEAKLAAARALAAEAGLSPEATAEILEAVELYEEGESDGSVAAHLYHAIVKHGMTVEQVRAVARFFKSLGLDEALELTAFLLEESGLEEQAAAIRAVLAE
B18: GBRAP_83_6949 (protein)
chain: KEKLVVAANDDNVEKAVEIAEELAKTGKYDVTLEFIGTVEAAEKLIEEVEKAWKKGVKMDVEVLLEGATEEEVKKVKEKFEKAAKEAGADVKVEVHALPK
B19: GBRAP_160_4259 (protein)
chain: EEKRKELIKDVEEDKKEILELVDKESAEEVRTFAVVELGSHIMEAIDEGVVSDEEEEELEEIRDELEEELEKNKNGSKEKIKEIIEKHFEKAIELLKKAK
B20: GBRAP_74_6555 (protein)
chain: SAALLAQARALKAAKDLAGLIALAEANVDKVTPAEAAELLTILTTAVVEHGDEMTDEQLERAMDAIVALELKIPNEDITDELADNIAKAVAIAVEREKKL
B21: GBRAP_184_5057 (protein)
chain: AIKEETIKAETLEELKKKLEELKEKLKNFKGELIVLVEIPKFTKEMIETLMKTLKEILDEGYVDSVTVGLDGEMSEEVIDLAIKLAKEAGIKLTIALEEE
B22: GBRAP_80_6850 (protein)
chain: AEAALAAALAALAAVLPEGAATAKRIVELALALGVPKAVITDLLNALTELAKVDPEKAKALLEELLADIEEEAAAGDRANAEAVLRGYAGEALLEAEELE
B23: GBRAP_184_5240 (protein)
chain: KILEKTVEAENAEELKEKLEEIKKEAEKAGAKVRLLIKVKELTKEKAETLAEMIKEMAKAGLIELVGIVSSEPISEENIDLLVKAADEAGVKLVIAEPEI
B24: GBRAP_122_2952 (protein)
chain: NSEEEVEKMVEETMKEAEKKDPAETIVKAIKEAAEKLDEESVIEFARKLKEKAIEKGWEAEAAKAFATAALWLEKEKPELANAADELAELADELFDLLLE
B25: GBRAP_78_6690 (protein)
chain: EIEELLDKAIEELGKAAKILAKMNTEEALDLLGKVIDAASILEEALLGETKLEDLKEALAELKEVAKELKKIDTPEAKEALKHVEKAIKYVEKAIKLLEK
B26: GBRAP_43_5773 (protein)
chain: SKELVEGALDFALLAAESPEIPEETKVKAIIAAFRLAADEGYADRELVKKVVEAAAKNLSAESLKKILEELKEIAEKHPELKEVFDEAAEILEKAIKEKE
B27: GBRAP_55_6433 (protein)
chain: SEDEELDKELSEDMMEVAAGLIEDPEAMERVLTRLAKDLAGKTIYITKEALDLLETEEERREFLRRVVEAAKAEKKIKGIELIDASEEDKELLEEAKKEV
B28: GBRAP_83_6881 (protein)
chain: KEEIVVAGPDDHVEELVEIAIDLHKEEGYEVTIEILVTEEGIEKVLEAIERLAKEGVDTEVILHGEGLSKEKLEELEKKAKEIAKKYGSNIKIKVLLDEP
B29: GBRAP_125_3142 (protein)
chain: MKAKLIALAEALARALGLSEEEIAELRELAEASDPAQTIVAILLAAGFEEEAELAREVLPKLTEEELEELTELARSLEGKSLEELREALLKKLKELKEKL

Molecular target: GABARAP, O95166
Assay: median log2 fold change of GCK-ALFA target abundance (FLAG IP / Myc IP barcode read proportion) (log2 ratio); each designed protein is fused to an ALFA-tag nanobody in HEK293 cells to bring the named protein to FLAG-tagged glucokinase (GCK); Myc marks an untargeted standard; higher = target protein stabilised (more abundant)
Details: target protein: 3xFLAG-MCP-GCK-ALFA reporter; HEK293 landing pad (RPLP)
Protocol: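 LABEL-seq trans screen in HEK293 landing-pad cells. Each de novo designed 100-aa effector handle, binding the indicated effector (E3 ligase, DUB or autophagy protein), is fused to a constant NbALFA target handle and induced with 2 ug/mL doxycycline. A FLAG-MCP-GCK-ALFA target and a Myc-MCP standard reporter were transfected, and after 48 h circRNA barcodes were recovered by anti-FLAG and anti-Myc IP and sequenced. The value is the median across barcodes (at least 3 per design) of log2(FLAG/Myc read-proportion ratio), with the two transfection replicates pooled. Negative values mean degradation and positive values mean stabilisation of the target.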

Chain of GABARAP, O95166 (O95166 whole entry, the tested form may be a part): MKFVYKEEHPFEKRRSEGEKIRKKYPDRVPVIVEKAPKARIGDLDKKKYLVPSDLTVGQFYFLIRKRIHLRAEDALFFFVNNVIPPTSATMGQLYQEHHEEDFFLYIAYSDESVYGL

Point of comparison: B23, “median log2 fold change” value 0.168. Against it:
- B1 — within 0.2 log units, 0.00611
- B2 — lower, -0.462
- B3 — within 0.2 log units, 0.267
- B4 — lower, -0.19
- B5 — within 0.2 log units, 0.0536
- B6 — lower, -0.325
- B7 — within 0.2 log units, 0.254
- B8 — within 0.2 log units, 0.088
- B9 — within 0.2 log units, 0.207
- B10 — lower, -0.183
- B11 — within 0.2 log units, 0.322
- B12 — within 0.2 log units, 0.256
- B13 — lower, -0.275
- B14 — within 0.2 log units, 0.0554
- B15 — within 0.2 log units, 0.023
- B16 — higher, 0.452
- B17 — within 0.2 log units, 0.1
- B18 — within 0.2 log units, 0.281
- B19 — within 0.2 log units, 0.165
- B20 — within 0.2 log units, 0.199
- B21 — within 0.2 log units, 0.0533
- B22 — within 0.2 log units, 0.0781
- B24 — within 0.2 log units, 0.0747
- B25 — within 0.2 log units, -0.0248
- B26 — within 0.2 log units, 0.103
- B27 — within 0.2 log units, 0.0781
- B28 — lower, -0.148
- B29 — within 0.2 log units, 0.151
